Data taken from the supplement of paper PMC9174493.
Counter-ions that a name gives are not always drawn. The list shows a part of the results. Single values of this set are uncertain. Values with irradiation are relative to irradiated vehicle.

Columns and labels:
[1] = system: A549-Dual; experiment: NF-kB reporter (SEAP) activity, viability-corrected, relative to vehicle (fold change vs vehicle); higher = more activation of STING-IRF / NF-kB immune response reporter
[2] = system: A549-Dual; experiment: ISRE reporter (Lucia luciferase) activity, viability-corrected, relative to vehicle (fold change vs vehicle); higher = more activation of STING-IRF / NF-kB immune response reporter
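For NF-kB reporter (SEAP) activity, viability-corrected, relative to vehicle in this document: viability correction based on the alamar blue assay, with concentrations leaving 10% survival or less dropped.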

SMILES | NF-kB reporter ([1]; 0.1 µM, irradiation: 8 Gy/4 fr) | NF-kB reporter ([1]; 0.1 µM, irradiation: none) | NF-kB reporter ([1]; 0.3 µM, irradiation: 8 Gy/4 fr) | NF-kB reporter ([1]; 0.3 µM, irradiation: none) | NF-kB reporter ([1]; 1 µM, irradiation: 8 Gy/4 fr) | NF-kB reporter ([1]; 1 µM, irradiation: none) | NF-kB reporter ([1]; 3 µM, irradiation: 8 Gy/4 fr) | NF-kB reporter ([1]; 3 µM, irradiation: none) | NF-kB reporter ([1]; 10 µM, irradiation: 8 Gy/4 fr) | NF-kB reporter ([1]; 10 µM, irradiation: none) | ISRE reporter ([2]; 0.1 µM, irradiation: 8 Gy/4 fr) | ISRE reporter ([2]; 0.1 µM, irradiation: none) | ISRE reporter ([2]; 0.3 µM, irradiation: 8 Gy/4 fr) | ISRE reporter ([2]; 0.3 µM, irradiation: none) | ISRE reporter ([2]; 1 µM, irradiation: 8 Gy/4 fr) | ISRE reporter ([2]; 1 µM, irradiation: none) | ISRE reporter ([2]; 3 µM, irradiation: 8 Gy/4 fr) | ISRE reporter ([2]; 3 µM, irradiation: none) | ISRE reporter ([2]; 10 µM, irradiation: 8 Gy/4 fr) | ISRE reporter ([2]; 10 µM, irradiation: none)
Nc1ccn(C2OC(CO)C(O)C2O)c(=O)n1 (stereo not given) [Cytarabine] | 0.83 | 1.04 | 0.569 | 1.11 | 0.622 | 1.26 | 0.899 | 1.29 | 1.09 | 1.35 | 0.792 | 2.55 | 0.444 | 2.21 | 0.478 | 2.34 | 0.491 | 2.23 | 0.494 | 1.8
CC(C)(O)c1ccccc1CCC(SCC1(CC(=O)O)CC1)c1cccc(/C=C/c2ccc3ccc(Cl)cc3n2)c1 (stereo not given) [Montelukast] | 1.17 | 0.775 | 0.898 | 0.66 | 0.719 | 0.658 | 0.571 | 0.716 | 0.578 | 0.512 | 0.971 | 0.896 | 0.758 | 0.709 | 0.912 | 0.665 | 0.631 | 0.762 | 0.638 | 0.643
COc1ccc2c(c1)nc(S(=O)Cc1ncc(C)c(OC)c1C)[n]2[Na] (stereo not given) [Esomeprazole sodium] | 0.964 | 0.985 | 0.953 | 0.972 | 0.978 | 0.964 | 0.875 | 1.02 | 1.07 | 0.973 | 1.08 | 0.906 | 0.899 | 0.869 | 0.993 | 0.856 | 0.783 | 0.743 | 1.05 | 0.828
CCC(=O)OCC(=O)C1(OC(=O)CC)C(C)CC2C3CCC4=CC(=O)C=CC4(C)C3(Cl)C(O)CC21C (stereo not given) [Beclomethasone dipropionate] | 0.617 | 0.894 | 0.749 | 0.979 | 1.07 | 0.741 | 0.626 | 0.827 | 0.535 | 0.76 | 0.0865 | 0.231 | 0.0748 | 0.312 | 0.0499 | 0.157 | 0.0581 | 0.29 | 0.0641 | 0.233
C=C1CCC2C(C)(CO)C(O)CCC2(C)C1C/C=C1\C=COC1=O (stereo not given) [Dehydroandrographolide] | 0.933 | 0.761 | 0.984 | 0.785 | 0.948 | 0.794 | 1.09 | 0.851 | 0.564 | 0.947 | 1.07 | 0.699 | 0.878 | 0.738 | 0.776 | 0.717 | 0.782 | 0.9 | 0.384 | 0.557
Cl.Cl.Cl.Cl.Cl.Cl.Cl.Cl.c1cc(CN2CCCNCCNCCCNCC2)ccc1CN1CCCNCCNCCCNCC1 [Plerixafor 8HCl (AMD3100 8HCl)] | 1.01 | 1.07 | 0.801 | 1.12 | 0.894 | 1.44 | 0.764 | 1.14 | 0.746 | 0.847 | 1.07 | 1.36 | 0.92 | 1.1 | 0.947 | 1.26 | 0.97 | 0.958 | 0.856 | 0.851
Cc1ccc(Nc2nccc(N(C)c3ccc4c(C)n(C)nc4c3)n2)cc1S(N)(=O)=O [Pazopanib] | 1.02 | 1.08 | 0.884 | 1.17 | 0.84 | 1.45 | 0.73 | 1.27 | 0.687 | 1.02 | 0.929 | 0.906 | 0.848 | 0.811 | 0.779 | 0.878 | 0.553 | 0.736 | 0.563 | 0.846
CCOCc1nc2c(N)nc3ccccc3c2n1CC(C)(C)O [Resiquimod] | 1.08 | 1.65 | 1.03 | 1.58 | 1.35 | 1.24 | 1.76 | 1.31 | 1.27 | 1.22 | 1.09 | 1.59 | 0.979 | 1.43 | 1.27 | 1.17 | 1.02 | 1.14 | 1.5 | 1.09
Cc1c(O)c(C)c2c(c1O)C(=O)CC(c1ccc(O)cc1)O2 (stereo not given) [Farrerol] | 0.948 | 0.8 | 0.889 | 0.743 | 0.924 | 0.8 | 1.1 | 0.816 | 0.769 | 0.967 | 0.922 | 0.778 | 0.813 | 0.662 | 0.698 | 0.753 | 0.787 | 0.78 | 0.659 | 0.85
Clc1ccc(C(c2ccccc2Cl)C(Cl)Cl)cc1 (stereo not given) [Mitotane] | 0.874 | 0.93 | 0.935 | 1.07 | 0.792 | 0.945 | 0.906 | 0.929 | 0.96 | 0.949 | 0.885 | 0.781 | 0.864 | 1.02 | 0.822 | 0.962 | 0.939 | 0.833 | 0.914 | 0.83
Cc1c(-c2ccc(-c3ccccc3F)cc2)nc2ccc(F)cc2c1C(=O)O [Brequinar] | 1.07 | 1 | 0.68 | 0.958 | 0.837 | 1.32 | 0.728 | 1.38 | 0.884 | 1.25 | 0.96 | 0.924 | 0.753 | 1.24 | 0.838 | 2 | 0.757 | 1.34 | 0.927 | 1.78
COC(=O)/C=C/C(=O)OC [Dimethyl Fumarate] | 0.605 | 0.615 | 0.629 | 0.609 | 0.573 | 0.593 | 0.487 | 0.712 | 0.529 | 0.68 | 0.698 | 0.672 | 0.646 | 0.699 | 0.643 | 0.771 | 0.574 | 1.01 | 0.686 | 0.635
O=C1Nc2ccccc2/C1=C1\Nc2ccccc2C1=O [Indirubin] | 1.33 | 1.42 | 1.02 | 1.54 | 0.964 | 1.91 | 0.952 | 1.4 | 0.857 | 1.29 | 0.966 | 0.772 | 0.749 | 0.628 | 0.716 | 0.858 | 0.298 | 0.309 | 0.302 | 0.407
